Laboratory results taken from PubChem BioAssay AID360 (National Center for Advancing Translational Sciences (NCATS), 2006).
Hit rate of the full screen: of about 48,000 compounds, about 550 (1.1%) were called active. About 4% were inconclusive and are not listed. Cut-off read from the data, not from the text of the source: active = potency below about 15 µM; inconclusive = mostly about 16 µM to 33 µM; inactive = weaker than that. This is one part of the list.

target: Lysosomal acid glucosylceramidase (Homo sapiens) (UniProt P04062); experiment: Glucocerebrosidase; details: purified enzyme, resorufin glucoside fluorescence (screen aimed at inhibitors), 20 min; series mostly up to 77 µM;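 note: the screen sought inhibitors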
Sequence of UniProt P04062 (P04062 whole entry, looked up): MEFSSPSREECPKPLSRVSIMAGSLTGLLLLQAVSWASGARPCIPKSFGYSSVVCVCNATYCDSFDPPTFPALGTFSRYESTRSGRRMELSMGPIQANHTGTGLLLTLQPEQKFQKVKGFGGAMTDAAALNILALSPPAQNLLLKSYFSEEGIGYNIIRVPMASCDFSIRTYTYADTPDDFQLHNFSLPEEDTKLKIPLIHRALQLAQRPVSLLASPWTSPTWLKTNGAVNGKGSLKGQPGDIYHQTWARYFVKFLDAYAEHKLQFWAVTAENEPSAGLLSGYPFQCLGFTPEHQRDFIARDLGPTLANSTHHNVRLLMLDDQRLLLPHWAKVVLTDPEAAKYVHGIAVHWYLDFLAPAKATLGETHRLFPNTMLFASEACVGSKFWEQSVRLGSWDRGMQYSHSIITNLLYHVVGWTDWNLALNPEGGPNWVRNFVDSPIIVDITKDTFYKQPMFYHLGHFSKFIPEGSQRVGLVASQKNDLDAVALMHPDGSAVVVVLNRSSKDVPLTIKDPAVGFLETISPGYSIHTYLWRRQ
Summary of the method: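 Normal human glucocerebrosidase (0.2 nM final) was assayed with resorufin β-D-glucopyranoside (30 uM final) in 50mM citric acid/KH2PO4, 10mM sodium taurocholate, 0.01% tween-20, pH 5.9. Compounds were titrated; fluorescence (Ex 548, Em 600) read after 20 min at RT.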
Potency is the fitted concentration of half-maximal effect.

SMILES	Potency
COc1ccc(S(=O)(=O)Nc2cc(C)on2)cc1OC	inactive: > 76.9 µM
CCOc1cc(-c2noc(CCC(=O)N3CCOCC3)n2)ccc1OC	inactive: > 76.9 µM
O=C(Nc1ccc(CCC(=O)N2CCCC2)cc1)c1ncn[nH]1	inactive: > 76.9 µM
Cc1cccc(Nc2nnc(SCc3cn4ccsc4n3)s2)c1	inactive: > 76.9 µM
CSC1=C(C#N)C(C)C2=C(CC(C)(C)CC2=O)N1 (centres undefined)	inactive: > 76.9 µM
COCCn1c(SCC(=O)N2CCCc3ccccc32)nnc1-c1ccco1	inactive: > 76.9 µM
COC(=O)c1ccccc1NC(=O)C1CC=CCC1C(=O)O (centres undefined)	inactive: > 76.9 µM
Cn1c(C(=O)N2CCCC(C(=O)O)C2)cc2sccc21 (centres undefined)	inactive: > 76.9 µM
O=C(CS(=O)CC(=O)N(CC(=O)NC1CCCC1)C1CCCC1)Nc1ccc(F)cc1 (centres undefined)	inactive: > 76.9 µM
CC(=O)c1c(C(C)=O)c(C)n(NC(=O)c2cccnc2)c1C	inactive: > 76.9 µM
COc1cc(Cl)c(C)cc1NC(=O)COC(=O)c1cnc(C)cn1	inactive: > 76.9 µM
O=C(Cn1c(=O)oc2ccccc21)N(Cc1ccccc1)C1CCS(=O)(=O)C1 (centres undefined)	inactive: > 76.9 µM
COc1ccc(N2CCN(CCNC(=O)C3CC(=O)N(C4CCCC4)C3)CC2)cc1 (centres undefined)	inactive: > 76.9 µM
Cc1ccc(N2C(=O)[C@@H]3[C@H](C2=O)C2c4ccccc4C=CN2[C@@H]3C(=O)c2ccco2)c(C)c1 (some centres undefined)	inactive: > 76.9 µM
CCSc1nnc(C)n1-c1ccc(C(=O)O)cc1	inactive: > 76.9 µM
CCOC(=O)c1cc2sccc2n1CC(=O)c1ccc2c(c1)OCCO2	inactive: > 76.9 µM
CCc1nnc(NC(=O)CSc2nnc(CNc3cccc(C)c3)n2-c2ccccc2)s1	active: 11.3 µM
CN(C)S(=O)(=O)c1cccc(C(=O)N(Cc2ccc(F)cc2)Cc2ccco2)c1	inactive: > 76.9 µM
COC(=O)C1=C(N)Oc2cc(C)n(CC3CCCO3)c(=O)c2C1c1ccccc1 (centres undefined)	inactive: > 76.9 µM
Cc1cc(C(=O)NCc2cc(C(=O)O)oc2C)c(C)o1	inactive: > 76.9 µM
Cc1cccn2c(=O)c(C=Nc3ccccc3)c(NCCO)nc12	inactive: > 76.9 µM
COC(=O)C1=C(C)NC(=O)C1(NC(=O)c1cccnc1)C(F)(F)F (centres undefined)	inactive: > 76.9 µM
Cc1noc(N)c1C(=O)Nc1ccc(F)cc1	inactive: > 76.9 µM

SMILES	Potency
NC(=O)c1c(NC(NC(=O)c2ccco2)(C(F)(F)F)C(F)(F)F)sc2c1CCCC2	inactive: > 76.9 µM
CCOC(=O)C1C2C=CC3(CN(Cc4cccs4)C(=O)C13)O2 (centres undefined)	inactive: > 76.9 µM
COc1ccc(C2CC(=O)C3=C(C2)Nc2ncnn2C3c2ccccc2C)c(OC)c1 (centres undefined)	inactive: > 76.9 µM
CCOC(=O)c1c(NC(=O)CSc2ncn[nH]2)sc(C)c1C	inactive: > 76.9 µM
Cc1cc(C)nc(SCc2nnc(SCC(=O)N3CCCc4ccccc43)n2C)n1	inactive: > 76.9 µM
COc1cc(C#N)ccc1OCC(=O)c1ccc2c(c1)OCCO2	inactive: > 76.9 µM
CCOc1ccccc1N1CCN(S(=O)(=O)c2cccs2)CC1	inactive: > 76.9 µM
Cc1cc(C)n(-c2ccc(C(=O)NCc3cccs3)cc2)n1	inactive: > 76.9 µM
O=C(COc1ccc(F)cc1)NC1CC1	inactive: > 76.9 µM
CCOc1ccccc1C1CC(=O)Nc2cc3c(cc21)OCO3 (centres undefined)	inactive: > 76.9 µM
COCCNS(=O)(=O)c1ccc(SC)cc1	inactive: > 76.9 µM
O=C(COc1ccccc1)c1cn(CC(=O)N2CCOCC2)c2ccccc12	inactive: > 76.9 µM
CN(C)c1nc(SCC#N)nc(N(C)C)n1	inactive: > 76.9 µM
CCn1c2ccccc2c2nnc(SCC(=O)N3CC(C)OC(C)C3)nc21 (centres undefined)	inactive: > 76.9 µM
Clc1ccccc1-c1nc(-c2ccccc2)n[nH]1	inactive: > 76.9 µM
O=c1cc[nH]c2cc(C(F)(F)F)ccc12	inactive: > 76.9 µM
O=C(Cn1cnc2ccccc2c1=O)NCc1ccco1	inactive: > 76.9 µM
Cc1noc(C)c1COC(=O)c1ccccc1NC(=O)Cc1ccccc1	inactive: > 76.9 µM
COc1ccccc1-c1nnc(NC(=O)c2ccc(S(=O)(=O)N(C)Cc3ccccc3)cc2)o1	inactive: > 76.9 µM
Cc1cc(CN2CCN(CCC#N)CC2)c(O)c(C2(C)CCCCC2)c1	inactive: > 76.9 µM
Cc1cc(C)n(-c2ccc(F)cc2)c(=O)c1C(=O)O	inactive: > 76.9 µM
COc1cccc(-n2nnc3c(=O)n(Cc4ccc(Br)cc4)cnc32)c1	inactive: > 76.9 µM
O=C(Cn1nnc(-c2cccc(C(F)(F)F)c2)n1)NC1CCCC1	inactive: > 76.9 µM

SMILES	Potency
C=CCn1c(SCCN2CCOCC2)nc2c1c(=O)[nH]c(=O)n2C	inactive: > 76.9 µM
CCOc1cccc2cc(-c3csc(NC(=O)CCC(=O)N4CCN(C)CC4)n3)c(=O)oc12	active: 12.4 µM
Cc1cc2c(c(=O)n1CCN(C)C)C(c1ccccc1Br)C(C#N)=C(N)O2 (centres undefined)	inactive: > 76.9 µM
O=C(O)c1cc(Cl)ccc1NC(=O)C1CCCO1 (centres undefined)	inactive: > 76.9 µM
O=c1[nH]c2cc3c(cc2cc1CN(CCCO)Cc1nnnn1Cc1ccc(F)cc1)OCO3	inactive: > 76.9 µM
CC(C)(C)n1nnnc1CN1CCN(C2CCCC2)CC1	inactive: > 76.9 µM
NC(=O)c1ccccc1N/C=C/C(=O)c1ccccc1	inactive: > 76.9 µM
Cc1cc(C)nc(N2CCC(C(=O)NCc3cccs3)CC2)n1	inactive: > 76.9 µM
CCOc1cccc(/C(O)=C2/C(=O)C(=O)N(Cc3ccco3)C2c2ccncc2)c1 (centres undefined)	inactive: > 76.9 µM
CCn1ncc(Cl)c1C(=O)Nc1ccncc1	inactive: > 76.9 µM
Cc1nc2cc(C(=O)OCC(=O)N(CC(C)C)C3CCS(=O)(=O)C3)ccc2n1-c1ccccc1 (centres undefined)	inactive
CCOC(=O)N1CCN(C(=O)Nc2ccc3oc(C)nc3c2)CC1	inactive: > 76.9 µM
CCN(CC)S(=O)(=O)c1ccc2c(c1)c(=O)c(C(=O)NCCN(C)CCc1ccccc1)cn2C	active: 5.58 µM
Cc1cc(C(=O)OCC(=O)c2c(N)n(C)c(=O)n(C)c2=O)c(C)n1-c1ccccc1	inactive: > 76.9 µM
COC(=O)c1ccc(CN2C(=O)NC3(CCC(C)CC3)C2=O)o1 (centres undefined)	inactive: > 76.9 µM
COc1ccc(CCNc2oc(Cc3cccc4ccccc34)nc2C#N)cc1OC	inactive: > 76.9 µM
CCSC1=C(C#N)C(c2ccccc2C)CC(=O)N1 (centres undefined)	inactive: > 76.9 µM
Cc1ccc(NC(=O)C2CCCN(S(=O)(=O)c3cccs3)C2)cc1 (centres undefined)	inactive: > 76.9 µM
Cc1cc(C)n(-c2nnc3n2N=C(c2ccccc2)CS3)n1	inactive: > 76.9 µM
CCc1nc2ccccc2c(NC(=O)CN2CCC(C)CC2)c1C	inactive: > 76.9 µM
Cc1ccccc1-n1nnnc1SCc1csc(-c2ccccc2)n1	inactive: > 76.9 µM
COc1ccc(NC(=O)CCc2nc(-c3ccc(C)cc3)no2)c(OC)c1	inactive: > 76.9 µM
COc1cc2c(cc1OC)CN(C(=O)c1cccs1)CC2	inactive: > 76.9 µM

SMILES	Potency
CC1=CC(C)(C)N2C(=O)C3(C(C#N)=C(N)Oc4cc(O)ccc43)c3cccc1c32 (centres undefined)	inactive: > 76.9 µM
Fc1ccc(-c2nnc(CSc3nnc(-c4ccc5c(c4)OCO5)o3)o2)cc1	inactive: > 76.9 µM
COC(=O)c1cc(NC(=O)C2CC=CCC2C(=O)O)cc(C(=O)OC)c1 (centres undefined)	inactive: > 76.9 µM
Cn1nnnc1SCC(=O)N1CCN(C(c2ccccc2)c2ccccc2)CC1	inactive: > 76.9 µM
CN(Cc1nc(-c2ccccn2)no1)S(=O)(=O)c1ccccc1	inactive: > 76.9 µM
CCC(c1nnnn1Cc1ccco1)N(CCN1CCOCC1)Cc1cc2cc(C)ccc2[nH]c1=O (centres undefined)	inactive: > 76.9 µM
CN(c1cccc(NC(=O)Nc2cccc(Cl)c2)c1)S(C)(=O)=O	inactive: > 76.9 µM
Cc1c(NC(=O)c2c(F)cccc2F)c(=O)n(-c2ccccc2)n1C	inactive: > 76.9 µM
COc1ccc(Cl)cc1N(C)C(=O)CCc1nc(-c2ccc(C)cc2)no1	inactive: > 76.9 µM
CCOC(=O)N1CCN(C(=O)c2cc(Cl)c(Cl)cc2C(=O)O)CC1	inactive: > 76.9 µM
COc1ccc(CN(C(=O)CSc2nnc(-c3ccccc3F)o2)c2ccc(F)cc2)cc1	inactive: > 76.9 µM
CCc1ccc(NC(=O)CCN2C(=O)c3cccnc3C2=O)cc1	inactive: > 76.9 µM
O=C1CCCc2nc(N3CCN(c4ccccc4)CC3)ncc21	inactive: > 76.9 µM
Cc1cc(=O)[nH]c(SCc2cc(Cl)ccc2OC(F)F)n1	inactive: > 76.9 µM
O=C(O)c1cc(NC(=O)C2CCCO2)cc(NC(=O)C2CCCO2)c1 (centres undefined)	inactive: > 76.9 µM
Cc1cc2nc(-c3ccc(NC(=O)c4cccnc4)cc3)oc2cc1C	inactive: > 76.9 µM
CCOC(=O)N1CCC(NC(=O)CCS(=O)(=O)c2ccc3c(c2)CCN3C(=O)CC)CC1	inactive: > 76.9 µM
O=C(NCC1CCCO1)c1ccc(NC(=O)C2CCCCC2C(=O)O)cc1 (centres undefined)	inactive: > 76.9 µM
COc1ccccc1OC(=O)C1CC(=O)N(c2ccc(Cl)cc2)C1 (centres undefined)	inactive: > 76.9 µM
CCOC(=O)C1=C(C)NC(SCC(=O)O)=NC1c1ccccc1 (centres undefined)	inactive: > 76.9 µM
